No constants are given. Whether binding was seen depends on the method and setting. In cells and extracts the contact can be indirect. Some entries that bind do so weakly or less than the wild type. For some of these results: Sequences can lack the tags named with a protein. Each block holds one molecule with its values, some of them ahead of it.
Experiments:
GFP-Hsf1 (budding yeast) [1] = biological target: GFP-Hsf1 (budding yeast) (UniProt P10961); assay: co-IP; GFP-Hsf1 purified with GFP-Trap / anti-GFP magnetic beads from lysates of FLAG-WT or T492A yeast (SSA2-promoter or GPD-promoter strains), untreated or heat-shocked; 50 mM Na-phosphate pH 8.0, 300 mM NaCl, 0.01% Tween-20, 4 °C overnight; blot for FLAG and GFP
GFP-Hsf1 (budding yeast) [2] = biological target: GFP-Hsf1 (budding yeast) (UniProt P10961); assay: co-IP; as a2, FLAG-WT cells after heat shock: GFP-Hsf1 purified with GFP-Trap beads, blot for FLAG
[3] = biological target: FLAG-tagged Ssa1-T492A (budding yeast) (UniProt P10591); assay: co-IP; FLAG-Ssa1 against Bck1-HA fragments in WT and T492A yeast, untreated or heat-shocked; which tag was precipitated is not given
[4] = biological target: FLAG-tagged Ssa1 (wild type) (budding yeast) (UniProt P10591); assay: as above

Amino acid sequences for entries named in this document (tags omitted). A change or cut given only in a name is not applied to a line headed by its entry.
UniProt P10961: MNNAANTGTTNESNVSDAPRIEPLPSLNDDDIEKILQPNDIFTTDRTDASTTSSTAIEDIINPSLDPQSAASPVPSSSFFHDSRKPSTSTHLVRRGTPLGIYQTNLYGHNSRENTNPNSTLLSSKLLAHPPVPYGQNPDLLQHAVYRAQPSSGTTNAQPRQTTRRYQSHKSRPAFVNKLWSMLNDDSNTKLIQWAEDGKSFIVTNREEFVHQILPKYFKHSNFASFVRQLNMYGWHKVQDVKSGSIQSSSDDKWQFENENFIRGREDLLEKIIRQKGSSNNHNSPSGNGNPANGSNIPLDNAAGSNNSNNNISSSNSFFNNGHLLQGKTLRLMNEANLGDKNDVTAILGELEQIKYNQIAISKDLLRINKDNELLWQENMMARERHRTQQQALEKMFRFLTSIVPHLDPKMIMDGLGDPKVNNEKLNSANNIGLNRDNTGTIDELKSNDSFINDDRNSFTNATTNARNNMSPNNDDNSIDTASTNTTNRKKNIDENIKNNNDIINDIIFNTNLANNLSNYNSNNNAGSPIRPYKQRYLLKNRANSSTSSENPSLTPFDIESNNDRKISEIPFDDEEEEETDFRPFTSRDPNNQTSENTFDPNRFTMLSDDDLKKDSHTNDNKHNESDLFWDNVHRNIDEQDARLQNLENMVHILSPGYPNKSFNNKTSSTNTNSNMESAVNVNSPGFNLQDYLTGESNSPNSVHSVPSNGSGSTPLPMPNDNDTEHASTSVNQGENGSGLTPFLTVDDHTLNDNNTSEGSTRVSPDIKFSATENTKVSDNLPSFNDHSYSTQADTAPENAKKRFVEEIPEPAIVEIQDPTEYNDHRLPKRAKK
UniProt P10591: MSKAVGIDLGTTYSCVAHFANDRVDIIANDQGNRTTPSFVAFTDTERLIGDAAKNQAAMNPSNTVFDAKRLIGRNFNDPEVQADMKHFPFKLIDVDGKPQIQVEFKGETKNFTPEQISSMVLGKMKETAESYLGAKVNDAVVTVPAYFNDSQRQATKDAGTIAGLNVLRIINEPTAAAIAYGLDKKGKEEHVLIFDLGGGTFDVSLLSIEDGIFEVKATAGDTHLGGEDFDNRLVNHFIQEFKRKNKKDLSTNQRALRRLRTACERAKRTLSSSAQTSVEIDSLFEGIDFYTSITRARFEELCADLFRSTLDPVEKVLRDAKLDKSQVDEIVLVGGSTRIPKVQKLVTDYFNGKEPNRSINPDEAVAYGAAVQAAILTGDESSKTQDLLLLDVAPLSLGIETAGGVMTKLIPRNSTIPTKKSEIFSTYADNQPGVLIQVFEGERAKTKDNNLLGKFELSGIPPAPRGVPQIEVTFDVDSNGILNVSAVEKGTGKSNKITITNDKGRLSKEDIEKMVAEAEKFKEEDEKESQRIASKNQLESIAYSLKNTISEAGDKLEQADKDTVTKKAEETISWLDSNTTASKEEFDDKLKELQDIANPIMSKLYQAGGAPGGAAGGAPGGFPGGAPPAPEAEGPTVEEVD

Molecule: FLAG-tagged Ssa1 (wild type) (from UniProt P10591 1-642)
binding (GFP-Hsf1 (budding yeast) [1]): binds
binding (GFP-Hsf1 (budding yeast) [2]): no binding (condition: after heat shock of the cells)

Molecule: FLAG-tagged Ssa1-T492A (from UniProt P10591 1-642)
binding (GFP-Hsf1 (budding yeast) [1]): binds

Next, values leading:

binding [3]: binds
binding [4]: binds
B1: Bck1 (739–1478) with an HA tag (domain or fragment, UniProt Q01389 739-1478)
chain: APKMVFKTSPKLELNLPDKGSKLNIPTPITENESKSSFQVLRKDEGTEIDFNHRRESPYTKPELAPKREAPKPPANTSPQRTLSTSKQNKPIRLVRASTKISRSKRSKPLPPQLLSSPIEASSSSPDSLTSSYTPASTHVLIPQPYKGANDVMRRLKTDQDSTSTSPSLKMKQKVNRSNSTVSTSNSIFYSPSPLLKRGNSKRVVSSTSAADIFEENDITFADAPPMFDSDDSDDDSSSSDDIIWSKKKTAPETNNENKKDEKSDNSSTHSDEIFYDSQTQDKMERKMTFRPSPEVVYQNLEKFFPRANLDKPITEGIASPTSPKSLDSLLSPKNVASSRTEPSTPSRPVPPDSSYEFIQDGLNGKNKPLNQAKTPKRTKTIRTIAHEASLARKNSVKLKRQNTKMWGTRMVEVTENHMVSINKAKNSKGEYKEFAWMKGEMIGKGSFGAVYLCLNVTTGEMMAVKQVEVPKYSSQNEAILSTVEALRSEVSTLKDLDHLNIVQYLGFENKNNIYSLFLEYVAGGSVGSLIRMYGRFDEPLIKHLTTQVLKGLAYLHSKGILHRDMKADNLLLDQDGICKISDFGISRKSKDIYSNSDMTMRGTVFWMAPEMVDTKQGYSAKVDIWSLGCIVLEMFAGKRPWSNLEVVAAMFKIGKSKSAPPIPEDTLPLISQIGRNFLDACFEINPEKRPTANELLSHPFSEVNETFNFKSTRLAKFIKSNDKLNSSKLRITSQENKTE

binding [3]: binds
binding [4]: binds
B2: Bck1 (1–738) with an HA tag (domain or fragment, UniProt Q01389 1-738)
chain: MPFLRKIAGTAHTHSRSDSNSSVKFGHQPTSSVASTKSSSKSPRATSRKSIYDDIRSQFPNLTPNSTSSQFYESTPVIEQSFNWTTDDHISAGTLENPTSFTNSSYKNDNGPSSLSDSRKSSGGNSVNSLSFDKLILSWDPTDPDEWTMHRVTSWFKFHDFPESWILFFKKHQLFGHRFIKLLAYDNFAVYEKYLPQTKTASYTRFQQLLKKTMTKNVTNSHIRQKSASKLKSSRSSSESIKSKLKNSKSQEDISNSRSTSESALSPTKSGPSKTDEKNFLHSTSTHQKTKSASSLYRRSFISLRGSSSSNASSAKSPSNIKLSIPARPHSIIESNSTLTKSASPPASPSYPSIFRRHHKSSSSESSLLNSLFGSGIGEEAPTKPNPQGHSLSSENLAKGKSKHYETNVSSPLKQSSLPTSDDKGNLWNKFKRKSQIGVPSPNTVAYVTSQETPSLKSNSSTATLTVQTADVNIPSPSSSPPPIPKTANRSLEVISTEDTPKISSTTASFKETYPDCINPDKTVPVPVNNQKYSVKNFLLDQKFYPLKKTGLNDSENKYILVTKDNVSFVPLNLKSVAKLSSFKESALTKLGINHKNVTFHMTDFDCDIGAAIPDDTLEFLKKSLFLNTSGKIYIKDQMKLQQKPKPAPLTSENNVPLKSVKSKSSMRSGTSSLIASTDDVSIVTSSSDITSFDEHASGSGRRYPQTPSYYYDRVSNTNPTEELNYWNIKEVLSHEEN
